# Measured values: PubChem BioAssay AID588855 (National Center for Advancing Translational Sciences (NCATS), 2011)
# Values joined by “and” are separate entries in the source; they are usually repeats but may differ in a detail not shown here. Identical values can stand only once. Out of some 410,000 compounds screened, about 5,000 (1.2%) were called active. The shares of active, inactive and inconclusive entries below differ from those in the screen. The call rests on the fitted dose curve; in most records, active means well fitted inhibition curve with a large enough effect; inconclusive means small, poorly fitted or top-dose-only effect; inactive means no such curve, though single readings can be large or run the other way. Where the call is inconclusive, the potency comes from a doubtful curve fit.
# Experiment: qHTS for Inhibitors of TGF-b; further: nearly all actives have a fitted effect of over 65% in size
# Conditions: HepG2 CAGA-GFP TGF-b/SMAD3 reporter, GFP fluorescence, 18 h, TGF-beta stimulated, 500 pg/mL final; series mostly up to 46.1 µM
# Summary of the method: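 Inhibition of TGF-beta-driven CAGA-GFP reporter expression in HEPG2 cells is measured by cellular GFP fluorescence after 18 h stimulation with 500 pg/mL recombinant TGF-beta in 1% FBS medium at 37 degrees C.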
# Potency means the concentration at half of the fitted maximal effect; tags describe the fitted curve by direction and shape.
row,SMILES,Potency
1,CCOc1ccc(CCNC(=O)CS(=O)(=O)Cc2nc(-c3cccc(Cl)c3)oc2C)cc1,"inconclusive: 1 µM [inhibitor, full curve, poor fit]"
2,COc1ccc(C2CC(c3cccs3)=NN2C(=O)CCl)cc1OC (stereo unspecified),active: 10 µM
3,Cc1cc(CN(C)Cc2c(C(=O)N3CCCCCCC3)nc3ccc(Cl)cn23)n[nH]1,inactive
4,CC(=O)Nc1ccc(S(=O)(=O)Nc2ccc(N3CCCCC3)cc2)cc1,"inconclusive: 35.5 µM [inhibitor, single point]"
5,O=C(O)CCc1nc2cc(C(F)(F)F)ccc2n(Cc2ccccc2)c1=O,inactive
6,Cc1ccc2[nH]c(C(=O)N/N=C/c3ccccc3O)c(C)c2c1,"inconclusive: 2.51 µM [inhibitor, partial curve]"
7,CSc1ccccc1C(=O)OCC(=O)NC1CC1,inactive
8,COc1cc(O)c(NC(C)=O)c2nonc12,inactive
9,CN(CC(=O)Nc1ccc(Cl)c(C(F)(F)F)c1)C(=O)c1cn2ccccc2n1,"inconclusive: 35.5 µM [inhibitor, single point]"
10,CN=c1scc(C)n1/N=C/c1ccc(O)c(O)c1O,"inconclusive: 12.6 µM [inhibitor, single point]"
11,COc1ccc(NS(=O)(=O)c2cccc(NC(=O)COc3ccccc3[N+](=O)[O-])c2)cc1,"inconclusive: 12.6 µM [inhibitor, partial curve, poor fit]"
12,CC1(OC(=O)C2CCCC2)C(=O)C=C2C=C(c3ccc(C#N)cc3)OC=C2C1=O (stereo unspecified),"inconclusive: 25.1 µM [inhibitor, partial curve, poor fit]"
13,COc1ccccc1N1CCN(CCCNC(=O)c2nnc(Cc3c(F)cccc3Cl)o2)CC1,inactive
14,COc1cc(Br)cc(/C=N/N(CCO)C2=NS(=O)(=O)c3ccccc32)c1OC,"inconclusive: 35.5 µM [inhibitor, single point]"
15,O=C(CCNS(=O)(=O)c1ccc(OC(F)(F)F)cc1)N1CCN(C/C=C/c2ccccc2)CC1,"inconclusive: 35.5 µM [inhibitor, single point]"
16,Cc1ccc(NC(=S)N(CCN2CCCCC2)Cc2ccco2)cc1,"inconclusive: 17.8 µM [inhibitor, single point]"
17,Cc1ccc(-n2cc3c(c2-c2ccccc2Br)c(=O)n(C)c(=O)n3C)cc1N,"inconclusive: 35.5 µM [inhibitor, single point]"
18,Cc1ccc(C)c(NC(=O)Cn2c(=O)n(-c3ccccc3C)c(=O)c3c2c2cc(C)ccc2n3C)c1,inactive
19,Cc1ccc(C(C)C)c(OCC(=O)NCC2(N3CCOCC3)CCCCC2)c1,"inconclusive: 0.398 µM [inhibitor, full curve, poor fit]"
20,Cc1cccc(C(=O)Nc2cccc(OCc3cc(=O)n4cc(C)sc4n3)c2)c1,inactive
21,COc1ccccc1N1CCN(S(=O)(=O)CCNC(=O)c2ccco2)CC1,inactive
22,COc1ccc(-c2nc3cnccn3c2NCc2ccccc2)cc1SC1CCCCC1,"inconclusive: 11.2 µM [inhibitor, partial curve, poor fit]"

row,SMILES,Potency
1,O=C(NCC(c1cccnc1)N1CCc2ccccc21)c1ccc(F)c(F)c1 (stereo unspecified),"inconclusive: 12.6 µM [inhibitor, partial curve]"
2,Cc1ccc(C(=O)NCC(=O)OCc2cc(=O)n3c(C)csc3n2)cc1,"inconclusive: 0.1 µM [inhibitor, full curve, poor fit]"
3,Cc1ccc(-n2nc3cc(C)c(NC(=O)COc4ccccc4)cc3n2)cc1,inactive
4,Brc1ccc(OCc2nnnn2-c2ccccc2)cc1,inactive
5,S=C(Nc1ccccc1)N1CCn2c1nc1ccccc12,"inconclusive: 3.16 µM [inhibitor, partial curve, poor fit]"
6,Fc1ccc(CNC(=S)NCc2cccc(Cl)c2)cc1,"inconclusive: 35.5 µM [inhibitor, single point]"
7,CCOc1ccc(NC(=O)C(=O)c2cc(C)n(-c3cc(C)cc(C)c3)c2C)cc1,inactive
8,Cc1ccc(NC(=O)C2CCCN(S(=O)(=O)c3ccc4c(c3)oc(=O)n4C)C2)cc1Cl (stereo unspecified),"inconclusive: 3.55 µM [inhibitor, partial curve, poor fit]"
9,COc1ccc(S(=O)(=O)Nc2ccc(Cc3ccncc3)cc2)cc1C,"inconclusive: 10 µM [inhibitor, partial curve]"
10,COc1ccc(-c2cc(C(=O)NCCc3ccccc3)c3c(-c4ccccc4)[nH]nc3n2)cc1OC,"inconclusive: 3.55 µM [inhibitor, single point]"
11,CCOc1ccc(CN(C)C(=O)c2cccc(S(=O)(=O)Nc3ccccc3OC)c2)cc1OC,inactive
12,COc1ccc(NC(=O)c2cccc(-n3c(C)ccc3C)c2)c(OC)c1,inactive
13,COc1cccc(/C=C2\SC(=S)N(CCC(=O)N3CCCCC3CCO)C2=O)c1 (stereo unspecified),"inconclusive: 35.5 µM [inhibitor, single point]"
14,Cc1cccc(CC(=O)NCC2CCCCC2)c1,inactive
15,Cc1ccc(C(=O)NCC(=O)OCC(=O)N(CC(C)C)c2c(N)n(Cc3ccccc3)c(=O)[nH]c2=O)cc1C,inactive
16,Cc1cc(N2CCN(c3nc4ccccc4s3)CC2)n2ncnc2n1,inactive
17,Cc1cccc(/C=N/NC(=O)Cc2ccc(Cl)cc2)c1O,"inconclusive: 7.94 µM [inhibitor, partial curve, poor fit]"
18,COc1ccccc1N1CCN(CC(O)COc2ccc(S(=O)(=O)N3CCOCC3)cc2)CC1 (stereo unspecified),inactive
19,CCOc1ccccc1CNn1cnnc1SCC(=O)NC(C)(C)C,inactive
20,O=c1c([N+](=O)[O-])cccn1Cc1ccccc1Cl,"inconclusive: 35.5 µM [inhibitor, single point]"
21,COc1ccc(Nc2nc(N)nc(N)c2S(=O)(=O)c2ccccc2)cc1,inactive
22,Cc1ccc(-c2nc(C#N)c(N3CCC(C)CC3)o2)cc1,inactive

row,SMILES,Potency
1,CC(=O)c1ccc(S(=O)(=O)N2CCN(c3ccnc4cc(Cl)ccc34)CC2)cc1,inactive
2,O=S(=O)(Nc1nnc(-c2ccccc2)s1)c1ccc(Cl)cc1,"inconclusive: 35.5 µM [inhibitor, partial curve, poor fit]"
3,COc1ccc(Nc2nnc(-c3ccc(O)cc3)c3ccccc23)cc1,"inconclusive: 10 µM [inhibitor, partial curve]"
4,CCOC(=O)C1(C)C(C(=O)OC)=C(c2ccc(OC)cc2)c2ccccc2N1C(=O)OC (stereo unspecified),"inconclusive: 35.5 µM [inhibitor, single point]"
5,C/C=C\C(=O)Nc1cccc(C2=NOC3(C2)C[C@@H](C(N)=O)N(C(=O)CC(c2ccccc2)c2ccccc2)C3)c1 (stereo partly specified),"inconclusive: 0.112 µM [inhibitor, full curve, poor fit]"
6,OC[C@@H]1CN(Cc2ccc(-c3ccccc3)cc2)C[C@H](n2cnc3c(N4CCCC4)ncnc32)O1,"inconclusive: 22.4 µM [inhibitor, single point]"
7,CC(C)(C)NC(=O)C(c1ccc(O)cc1)N(Cc1ccco1)C(=O)CCC(=O)Nc1ccccn1 (stereo unspecified),inactive
8,CCN1CCN(Cc2ccc(NC(=O)c3cc(NC(=O)c4cc(-c5ccc(OC)cc5)n[nH]4)cc(OC)c3)cc2C(F)(F)F)CC1,"inconclusive: 31.6 µM [inhibitor, single point]"
9,Cc1ccc(NC(=O)CN2CCN(S(=O)(=O)c3ccc(C(C)C)cc3)CC2)cc1F,"inconclusive: 12.6 µM [inhibitor, partial curve, poor fit]"
10,Cc1ccc(-c2cc(-c3ccccc3)nc(N/N=C/c3cccnc3)n2)cc1,"inconclusive: 22.4 µM [inhibitor, single point]"
11,COc1ccc(OC)c(-c2nnc3n2N=C(c2ccc(OC)c(OC4CCCC4)c2)CS3)c1,"inconclusive: 3.55 µM [inhibitor, partial curve, poor fit]"
12,CCc1nn2c(=O)cc(COC(=O)CNC(=O)COc3ccc(C)cc3)nc2s1,"inconclusive: 0.224 µM [inhibitor, full curve, poor fit]"
13,COc1ccc(NC(=O)c2c(NCc3sccc3C)sc3c2CCCC3)c(OC)c1,"inconclusive: 35.5 µM [inhibitor, partial curve, poor fit]"
14,O=C(Nc1ccc(Nc2ccccc2)cc1)C1CC1,inactive
15,CCC(=O)N1CCc2cc(S(=O)(=O)CCC(=O)N3CCN(c4ccc(Cl)cc4)CC3)ccc21,"inconclusive: 5.62 µM [inhibitor, partial curve] and inconclusive: 7.08 µM [inhibitor, partial curve, poor fit]"
16,COc1cccc(C(C)NC(=S)NCc2ccc(F)cc2)c1 (stereo unspecified),"inconclusive: 20 µM [inhibitor, single point]"
17,CCOc1ccc(NC(=O)c2c(NC(=O)CNCCN3CCOCC3)sc3c2CCC3)cc1,"inconclusive: 5.01 µM [inhibitor, partial curve]"
18,CC(C)CC(NS(=O)(=O)c1ccc2c(c1)oc(=O)n2C)C(=O)NCc1ccccc1Cl (stereo unspecified),"inconclusive: 35.5 µM [inhibitor, single point]"
19,CCCOc1ccc(CN(C(=O)Cc2coc3ccc(CC)cc23)C2CCS(=O)(=O)C2)cc1 (stereo unspecified),"inconclusive: 22.4 µM [inhibitor, single point]"
20,Cc1nc2ccc(NS(=O)(=O)c3ccc(F)c(F)c3F)cc2s1,"inconclusive: 15.8 µM [inhibitor, single point]"
21,COc1cc(SC)ccc1C(=O)N1CCCc2ccccc21,inactive
22,CC1=CC(C)(C)Nc2ccc(Cc3ccc4c(c3)C(C)=CC(C)(C)N4)cc21,"inconclusive: 14.1 µM [inhibitor, single point]"
